Source: the supplement of paper PMC10126150
Values marked as one replicate rest on one cluster of the flow cell; about a third of the high ones do not repeat.

Tested on: ATP
Experiment: switch fluorescence ratio, 500 uM ATP over buffer (Cy3 cluster intensity, sum of 5 cycles each) (fold (ratio)); higher = stronger signal-on switching upon ATP binding; sequences stand for … in TCGTCGGCAGCGTCAGATGTGTATAAGAGACAGTTTTTTTTTTTTTTTTTTTTTTTTT…TC
Conditions: aptamer strand: ATP DNA aptamer (quencher-CACCTGGGGGAGTATTGCGGAGGAAGG + anchor), 100 nM annealed; ATP concentration: 500 uM; one replicate
Outline: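 Cy3-labelled switching-strand clusters on a modified Illumina MiSeq flow-cell were annealed to 100 nM quencher-labelled ATP aptamer, imaged in selection buffer, then imaged after 15 min with 500 uM ATP at 22 °C. Five buffer/ATP cycles ran, with NaOH stripping and re-annealing between them. The fluorescence ratio is summed target-cycle over summed buffer-cycle Cy3 intensity per cluster, averaged per switch-domain sequence. Clusters outside 100-1000 RFU were excluded.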
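Further: ATP exposure 15 min at 22 °C before imaging.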

AGTGTGACGG gave a switch fluorescence ratio of 1.02.

Work on ATCTATACAC yielded a switch fluorescence ratio of 1.

In the case of TTATAGTGTC, the switch fluorescence ratio is reported as 0.955.

ATTTGAAGTG showed a switch fluorescence ratio of 0.922.

In the case of CAGTTTTCAG, the switch fluorescence ratio is reported as 0.977.

With GAACCATAAC the switch fluorescence ratio was 1.09.

ACCGCCGAGC showed a switch fluorescence ratio of 1.88.

AGCCTCCCGT gave a switch fluorescence ratio of 1.2.

CGTTGTTGAT was tested, and the switch fluorescence ratio was 0.97.

With GCATAGGGAG the switch fluorescence ratio was 1.04.

With GCCTTTACT the switch fluorescence ratio was 0.998.

For CCGGCCACTT, the switch fluorescence ratio was 1.26.

For CTTTTTCGAC, the switch fluorescence ratio was 0.993.

CACTAGCG gave a switch fluorescence ratio of 0.975.

AAGACGTAGA was tested, and the switch fluorescence ratio was 0.991.

TTGGTTAGG gave a switch fluorescence ratio of 0.926.

CGGTTCAGCT showed a switch fluorescence ratio of 1.22.

In the case of AATTGGCTGG, the switch fluorescence ratio is reported as 1.02.

TCAATGATGA showed a switch fluorescence ratio of 1.01.

TGAGACGCTT showed a switch fluorescence ratio of 1.03.

Work on AAGTTCTAGA yielded a switch fluorescence ratio of 0.976.

GACCCATCCT showed a switch fluorescence ratio of 1.17.

TCTCTGAGCC showed a switch fluorescence ratio of 1.03.

CCTGAGCATA showed a switch fluorescence ratio of 3.48.

In the case of TAGACCATGC, the switch fluorescence ratio is reported as 1.1.

For TGACGGTATT, the switch fluorescence ratio was 1.09.

CGTCTTTGGC showed a switch fluorescence ratio of 0.957.

AAACCTGTT gave a switch fluorescence ratio of 1.06.

ATTCGAAGAA was tested, and the switch fluorescence ratio was 0.974.

In the case of AGAATAGGTA, the switch fluorescence ratio is reported as 1.04.

CCCCAGCATG showed a switch fluorescence ratio of 2.35.

AGATCCGGAA gave a switch fluorescence ratio of 1.11.

ATTGTCTCAC showed a switch fluorescence ratio of 0.966.

With GTTGCACGGT the switch fluorescence ratio was 0.996.

GGGGGAATCG gave a switch fluorescence ratio of 1.04.

In the case of ATCCCCGGGA, the switch fluorescence ratio is reported as 1.03.

CCAGGTCCGA gave a switch fluorescence ratio of 1.11.

GTTAGTAAGT was tested, and the switch fluorescence ratio was 0.98.

For TAAATTAGTG, the switch fluorescence ratio was 0.992.

With TTATCTTCGC the switch fluorescence ratio was 1.1.

Work on AAATATGCCA yielded a switch fluorescence ratio of 0.984.

Sequence GCTATGATGC has a switch fluorescence ratio of 0.994.

Work on GGATAAATTG yielded a switch fluorescence ratio of 1.02.

Sequence TGCAATTTCT has a switch fluorescence ratio of 1.12.

TTACTGCAAA was tested, and the switch fluorescence ratio was 1.11.

TGATCCTCG was tested, and the switch fluorescence ratio was 1.

AGCATAGTGG was tested, and the switch fluorescence ratio was 1.02.

Sequence TTCAAATCTT has a switch fluorescence ratio of 1.02.

GTTAGGAAAC gave a switch fluorescence ratio of 1.04.

TTCTGAATCA showed a switch fluorescence ratio of 0.972.

Work on AAATACTTTA yielded a switch fluorescence ratio of 1.01.

With CTACATACTA the switch fluorescence ratio was 1.38.

AAGCGTTCGG gave a switch fluorescence ratio of 1.03.

Work on ACCTAGCACG yielded a switch fluorescence ratio of 1.04.

For TTTAGGAGT, the switch fluorescence ratio was 1.02.

In the case of AGGATAGAGG, the switch fluorescence ratio is reported as 1.01.

TCTAAGGTCG gave a switch fluorescence ratio of 0.962.

Work on CTCGACTATG yielded a switch fluorescence ratio of 0.995.

TGGCGTGGCT gave a switch fluorescence ratio of 1.03.

Sequence CATCATCGG has a switch fluorescence ratio of 1.

ATCGTTTCAC gave a switch fluorescence ratio of 0.973.

Work on GCATACGTCA yielded a switch fluorescence ratio of 1.18.

TACACGCAA gave a switch fluorescence ratio of 2.86.

Sequence TGCAGTGTGA has a switch fluorescence ratio of 1.

GAGGGAGCTC was tested, and the switch fluorescence ratio was 0.98.

In the case of GATGAAGCTT, the switch fluorescence ratio is reported as 1.01.

TGGTCAGCTG showed a switch fluorescence ratio of 0.935.

ACAATTTAGT was tested, and the switch fluorescence ratio was 1.06.

For GCGCAGTATA, the switch fluorescence ratio was 1.07.

GATCGTACAC was tested, and the switch fluorescence ratio was 1.27.

GATATGTATT was tested, and the switch fluorescence ratio was 0.994.

With CATTGGCGGA the switch fluorescence ratio was 1.06.

CCGGCGGACT was tested, and the switch fluorescence ratio was 1.08.

For CACCCATGGG, the switch fluorescence ratio was 3.35.

Work on GCTGGAGTTT yielded a switch fluorescence ratio of 0.985.

GTCTTAGTTT showed a switch fluorescence ratio of 0.967.

In the case of TACAGCGGAC, the switch fluorescence ratio is reported as 1.41.

Work on CGTTTACGG yielded a switch fluorescence ratio of 0.93.

With GTCATAACTC the switch fluorescence ratio was 1.06.

ACCCGCCTTA showed a switch fluorescence ratio of 1.05.

Work on AAGGCCAGAC yielded a switch fluorescence ratio of 1.06.

For TCCAAGATCT, the switch fluorescence ratio was 1.03.

For TTATACGGTG, the switch fluorescence ratio was 1.05.

In the case of AATCGCCGTC, the switch fluorescence ratio is reported as 1.02.

GAAAGCACAA was tested, and the switch fluorescence ratio was 1.14.

ACATTAAGTT gave a switch fluorescence ratio of 1.02.

Work on ATAGGACAGA yielded a switch fluorescence ratio of 1.03.

CATTTTGCTT showed a switch fluorescence ratio of 0.999.

Work on ATCGATCTTG yielded a switch fluorescence ratio of 1.05.

CGCGAATGAT showed a switch fluorescence ratio of 1.01.

With CGCTCGGCGG the switch fluorescence ratio was 0.987.

With TAATTCATGG the switch fluorescence ratio was 0.967.

With GAGACAGGTT the switch fluorescence ratio was 1.04.

TAGACTTTGT was tested, and the switch fluorescence ratio was 0.996.

In the case of AGTGGGAATA, the switch fluorescence ratio is reported as 1.01.

With AGGGGTTATT the switch fluorescence ratio was 0.986.

With GAGTGGCTGA the switch fluorescence ratio was 1.01.

Work on TCGGGTAAAT yielded a switch fluorescence ratio of 0.964.

With GAGTGACTTT the switch fluorescence ratio was 1.04.

With GGTAGAGGAG the switch fluorescence ratio was 1.03.

TTATGTCTTT was tested, and the switch fluorescence ratio was 0.977.

ACCTACAGTG was tested, and the switch fluorescence ratio was 1.26.

CATTCTTCCT gave a switch fluorescence ratio of 1.34.

For TGCGGTACAA, the switch fluorescence ratio was 1.03.

With CTGCCAGCTA the switch fluorescence ratio was 1.29.

GTGGTAACGC gave a switch fluorescence ratio of 0.978.

CGACGCTAGA showed a switch fluorescence ratio of 3.52.

For TCGACTAGAT, the switch fluorescence ratio was 1.07.

CAACAGGCAG was tested, and the switch fluorescence ratio was 1.01.

Work on CGCACTTGCA yielded a switch fluorescence ratio of 1.07.

In the case of AGGTCCTAGG, the switch fluorescence ratio is reported as 0.985.

Work on TTCCGAAATC yielded a switch fluorescence ratio of 5.29.

In the case of CTTACATTCA, the switch fluorescence ratio is reported as 1.08.

With AGTATTTAAG the switch fluorescence ratio was 1.04.

CATGTTCATT gave a switch fluorescence ratio of 0.979.

For TGGGTGTTTC, the switch fluorescence ratio was 1.01.

With TCAATGGGCA the switch fluorescence ratio was 0.981.

TGTGCTCGGG was tested, and the switch fluorescence ratio was 0.998.

In the case of CTGCATGCGA, the switch fluorescence ratio is reported as 1.61.

Work on CGGGGACAAA yielded a switch fluorescence ratio of 1.01.

CGTAGTCTGT was tested, and the switch fluorescence ratio was 1.01.

Sequence AGAGGGAAGC has a switch fluorescence ratio of 1.09.

Work on TTTATGGTCG yielded a switch fluorescence ratio of 0.934.

Sequence AATGAAAGTG has a switch fluorescence ratio of 0.94.

Sequence GAATTGTAGA has a switch fluorescence ratio of 0.975.

With TATTGTTAAT the switch fluorescence ratio was 0.974.

AAGATCGACC was tested, and the switch fluorescence ratio was 1.01.

In the case of CTCCCTTCGT, the switch fluorescence ratio is reported as 1.11.

Work on AGAGTATAAC yielded a switch fluorescence ratio of 1.02.

ACGGTAAGGG showed a switch fluorescence ratio of 1.12.

In the case of CGTCGTAGGA, the switch fluorescence ratio is reported as 0.985.

In the case of TCCATGAAGT, the switch fluorescence ratio is reported as 0.983.

Work on TTGGCAAGAT yielded a switch fluorescence ratio of 1.03.

ATGATAGATC gave a switch fluorescence ratio of 0.968.

In the case of CACGTTAAGT, the switch fluorescence ratio is reported as 1.14.

In the case of CCTGGTGGCG, the switch fluorescence ratio is reported as 0.975.

For GTCATCGACC, the switch fluorescence ratio was 1.02.

With CGTTAAATAT the switch fluorescence ratio was 1.02.

GCTTGGATGC was tested, and the switch fluorescence ratio was 0.986.

Sequence CGGGTGCGAT has a switch fluorescence ratio of 0.987.

In the case of GATAGGTGAC, the switch fluorescence ratio is reported as 1.02.

Work on CAATTGCACG yielded a switch fluorescence ratio of 1.05.

For GATTAATTCA, the switch fluorescence ratio was 1.02.

In the case of CCCATTTACC, the switch fluorescence ratio is reported as 1.1.

Work on GGTCAAAGAT yielded a switch fluorescence ratio of 1.02.

With GACAGTTCT the switch fluorescence ratio was 1.03.

ACACATCAGC gave a switch fluorescence ratio of 1.02.

Sequence TATCAAACAA has a switch fluorescence ratio of 0.988.

For CGGCCGAAAT, the switch fluorescence ratio was 1.07.

With GTAGGATCAG the switch fluorescence ratio was 0.967.

Work on AGATCGGTCT yielded a switch fluorescence ratio of 0.954.

ACTGAACCTA showed a switch fluorescence ratio of 1.18.

Sequence AAGCTAAAGC has a switch fluorescence ratio of 0.96.
